The results in this text go back to patent US20220281949A1 (UNIVERSITY HEALTH NETWORK, published 2022).

The experiment concerns the target T1, recombinant 10× His-tagged CD4 protein (extracellular domain of human CD4, GS linker, 10× histidine tag) (human).
T1 construct: Expressed in A375 cells, purified on TALON resin; The text says […] of, whereas the printed construct ends at ...KVLPTW; also called soluble CD4; recombinant CD4
The experiment is described as follows: biolayer interferometry (Octet Red), biotinylated DR1 on streptavidin biosensors, soluble CD4 0.8125 to 26 µM, steady-state one-site fit.

B1: biotinylated recombinant DR1^L114W/V143M+2reps protein (DRA1*01:01 and mutant DRB1*01:01 extracellular domains with leucine zippers) (peptide-MHC)
MHC II alpha: not shown
MHC II beta: GDTRPRFLWQLKFECHFFNGTERVRLLERCIYNQEESVRFDSDVGEYRAVTELGRPDAEYWNSQKDLLEQRRAAVDTYCRHNYGVGESFTVQRRVEPKVTVYPSKTQPLQHHNWLVCHVSGFYPGSIEVRWFRNGQEEKAGVMSTGLIQNGDWTFQILVMLETVPRSGEVYTCQVEHPSVTSPLTVEWRARSESAQSKGGGGSLEIEAAFLERENTALETRVAELRQRVQRLRNRVSQYRTRYGPLGGGKGSGLNDIFEAQKIEWHE
notes: also called biotinylated HLA-DR1
Broadly, the Kd is the concentration at which binding is half-saturated. As to B1, the dissociation constant (Kd) is 14 µM.
